Assay results taken from PubChem BioAssay AID1159614 (National Center for Advancing Translational Sciences (NCATS), 2016).
The campaign covered roughly 45,000 compounds. About 65 (0.1%) were called active. The call rests on the fitted dose curve; in most records, active means well fitted activation curve with a large enough effect; inconclusive means small, poorly fitted or top-dose-only effect; inactive means no such curve, though single readings can be large or run the other way. This is one part of the list.

What follows are compounds tested against Galactocerebrosidase (Homo sapiens) (UniProt P54803) (assay: A Novel Cell-Based Assay to Identify Small Molecules for B -Galactocerebrosidase). Settings: 145M-Twi-hGALC-G270D cells (Twitcher mouse brain line with human GALC G270D), HMU-beta-Gal fluorescence, 48 h; series mostly up to 57.5 µM; activation: at the top concentration.
Summary of the method: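 Mutant human GALC (G270D), stably expressed in a Twitcher mouse brain cell line lacking endogenous GALC, is measured in live-treated cells via 6-hexadecanoylamino-4-methylumbelliferyl-β-galactoside hydrolysis (0.1 mM final, pH 5.2) with fluorescent detection.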
Further: nearly all actives have a fitted effect of over 65% in size.
Potency means the concentration at half of the fitted maximal effect.
Wherever activation is given: 0% is about no effect.

Chain of UniProt P54803 (P54803 whole entry, looked up): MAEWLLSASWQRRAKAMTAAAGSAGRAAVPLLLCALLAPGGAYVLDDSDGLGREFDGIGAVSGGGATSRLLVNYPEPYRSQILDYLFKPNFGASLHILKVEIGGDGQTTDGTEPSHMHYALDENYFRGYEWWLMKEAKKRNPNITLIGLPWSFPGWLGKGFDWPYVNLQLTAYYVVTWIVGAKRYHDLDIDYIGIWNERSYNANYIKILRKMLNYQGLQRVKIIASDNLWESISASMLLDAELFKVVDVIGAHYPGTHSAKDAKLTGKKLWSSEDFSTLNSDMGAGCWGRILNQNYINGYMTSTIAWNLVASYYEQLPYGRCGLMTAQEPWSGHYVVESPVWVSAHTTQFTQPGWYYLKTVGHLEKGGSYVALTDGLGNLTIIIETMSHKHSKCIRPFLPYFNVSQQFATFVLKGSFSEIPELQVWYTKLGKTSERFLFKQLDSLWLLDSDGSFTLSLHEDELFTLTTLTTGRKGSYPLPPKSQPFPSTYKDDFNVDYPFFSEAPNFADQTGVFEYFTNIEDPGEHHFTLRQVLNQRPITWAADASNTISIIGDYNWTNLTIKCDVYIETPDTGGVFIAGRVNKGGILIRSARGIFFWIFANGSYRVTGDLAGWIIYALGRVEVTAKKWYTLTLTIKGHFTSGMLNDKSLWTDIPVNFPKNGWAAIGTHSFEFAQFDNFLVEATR

Row | SMILES | activation | Potency
1 | CCS(=O)(=O)c1ncc(N(Cc2ccccc2)Cc2ccco2)c(C(=O)Nc2ccccc2C)n1 | inactive: -13.9% | –
2 | CSCCC(NS(=O)(=O)c1ccc2c(c1)oc(=O)n2C)C(=O)NCc1ccc(Cl)cc1 (centres undefined) | inactive: -20.3% | –
3 | Cc1ccc(C(=O)Nc2cc(-c3cn4cccnc4n3)ccc2C)cc1C | inactive: -3.71% | –
4 | Cc1nnc(NC(=O)CSc2nccn2Cc2ccccc2)s1 | inactive: -13.8% | –
5 | Cc1ccc(C)c(NC(=O)c2nc(S(=O)(=O)Cc3ccc(F)cc3)ncc2Cl)c1 | inactive: -21.3% | –
6 | Cc1cc(F)ccc1Nc1nc2ccc(Cl)cc2n2cnnc12 | inactive: -0.582% | –
7 | CCC(C)(C)NC(=O)C(NS(=O)(=O)c1cccs1)c1ccccc1 (centres undefined) | inactive: -18% | –
8 | CCOC(=O)c1ccc(-n2c(CCC(=O)O)ccc2-c2ccccc2)cc1O | inactive: -0.177% | –
9 | NCC[C@H](O)C(=O)N[C@@H]1C[C@H](N)[C@@H](O[C@H]2O[C@H](CN)[C@@H](O)[C@H](O)[C@@H]2O)[C@H](O)[C@@H]1O[C@H]1O[C@H](CO)[C@@H](O)[C@H](N)[C@@H]1O | inactive: -7.07% [at 0.46 µM] | –
10 | CC(C)CCNc1nc(Nc2ccccc2)c2cnn(C)c2n1 | inactive: -27.7% | –
11 | O=C(Cc1ccc(Cl)cc1)NCCc1csc2nc(-c3ccccc3F)nn12 | inactive: -9.94% | –
12 | Cc1cc(=O)oc2cc(O)ccc12 | – | active: 28.2 µM
13 | CC(CC(=O)Nc1ccc(F)cc1)S(=O)(=O)c1cc2c3c(c1)CCN3C(=O)CC2 (centres undefined) | inactive: -16.6% | –
14 | COc1ccc(N2CCN(C(=O)C(CC(C)C)NS(=O)(=O)c3ccc4nc(C)sc4c3)CC2)cc1 (centres undefined) | inactive: -15.9% | –
15 | CNc1ccc(-c2nc(-c3ccncc3)no2)cc1[N+](=O)[O-] | inactive: 3.47% | –
16 | COC(=O)c1ccccc1NC(=O)CSc1nc2ccccc2nc1Cc1ccc(F)cc1 | inactive: -11.7% | –
17 | Cc1ccc(CNc2cc(C)nc3nc(-c4ccc(C)cc4)nn23)cc1 | inactive: -22.8% | –
18 | O=C(NC1CCCCC1)c1ccc2c(c1)N(Cc1cccc(Cl)c1)C(=O)c1ccccc1S2(=O)=O | inactive: -14.7% | –
19 | COc1ccc(CNC(=O)CCc2c(C)nc3cc(-c4ccc(OC)cc4OC)nn3c2C)cc1 | inactive: -15.6% | –
20 | CCOc1ccc2nc(N3CCCC(C(=O)Nc4ccccc4CC)C3)sc2c1 (centres undefined) | inactive: -0.619% | –
21 | CCc1ccc(NC(=O)CSc2nc(-c3ccc(C)cc3)nc3c2Cc2c(CO)cnc(C)c2O3)cc1 | inactive: -21.3% | –
22 | CCOC(=O)c1cc(-c2ccc(F)cc2)n(CCC(=O)NC2CCC(C)CC2)c1C (centres undefined) | inactive: -8.11% | –
23 | Cc1oc(=O)oc1COC(=O)[C@@H]1N2C(=O)[C@@H](NC(=O)[C@H](N)c3ccccc3)[C@H]2SC1(C)C | inactive: -13.8% | –
24 | Cc1cccc(NC(=O)Cn2c(=O)n(CC3CCC(C(=O)NCCc4ccccc4)CC3)c(=O)c3ccccc32)c1 (centres undefined) | inactive: -10.7% | –
